Laboratory results as given in patent publication US20240209061A1 (Pfizer, published 2024).
Where “and” joins values, the source holds several entries; their conditions need not be identical. Equal values may be shown once.

Columns and labels:
[1] = biological target: T1, CD28 expressed on Jurkat T cell line / human T cells (human, UniProt P10747 19-220); test: cell-based or functional assay
[2] = biological target: T1, CD28 expressed on Jurkat T cell line / …; test: cell-based or functional assay; remark: listed apart in the source
[3] = biological target: T1, CD28 expressed on Jurkat T cell line / …; test: flow cytometry on Jurkat cells (CD28), CD80-Fc 0.025-500 nM on ice, PE goat anti-human Fc
Procedure: (§1) Binding affinity of CD80-Fc fusion proteins (WT and variant) against CD28 expressed on Jurkat T cell line (ATCC TIB-152) was measured by flow cytometry. Jurkat cells (100,000 cells suspended in 100 μL PBS supplemented with 0.5% BSA, 2 mM EDTA, and 10% normal goat serum) were incubated with CD80-Fc fusion proteins at concentrations ranging 0.025-500 nM on ice for 30 minutes. Cells were then washed with PBS supplemented with 0.5% BSA and 2 mM EDTA twice. […] Afterward, cells were washed with PBS supplemented with 0.5% BSA and 2 mM EDTA twice. Finally, cells were suspended in PBS containing 0.5 μg/mL 7-amino-actinomycin D and acquired on BD LSRFortessa X-20 flow cytometer. Data were analyzed by Flowjo v10 software (Flowjo, LLC). FIG. 3 and Table 1 show the binding affinity of CD80-Fc fusion proteins (WT and variants) against CD28 expressed on Jurkat cells.

[4] = biological target: T1, CD28 expressed on Jurkat T cell line / …; test: cell-based or functional assay; remark: listed apart in the source
[5] = biological target: T1, CD28 expressed on Jurkat T cell line / …; test: flow cytometry on Jurkat cells, PE anti-human Fc detection
Procedure: as §1

insulin = biological target: T2, insulin; test: insulin-binding ELISA (non-specific binding)
T2 construct: Polyspecificity reagent
T2 sequence (P01308 25-54, chain 1 of 2): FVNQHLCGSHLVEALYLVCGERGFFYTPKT
T2 sequence (P01308 90-110, chain 2 of 2): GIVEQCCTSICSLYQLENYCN
Procedure: Variant CD80-Fc fusion proteins were assessed by measuring non-specific binding using a DNA- and insulin-binding ELISA (Avery et al., MAbs. 2018 February/March; 10(2): 244-255) and for self-interaction in an AC-SINS assay (affinity-capture self-interaction nanoparticle spectroscopy; Liu et al., 2014, mAbs 6:483-92). DNA- and insulin-binding scores were calculated as the signal ratio of the ELISA signal of the CD80-Fc fusion protein at 10 μg/ml to the ELISA signal in the absence of the Fc-fusion protein (buffer only). For the AC-SINS assay, proteins are captured by anti-human Fc antibodies coated on gold nanoparticles. […] The score ranges obtained from these in vitro assays correlate well with in vivo clearance using huFcRn transgenic (Tg32) mouse. Therapeutic proteins with high scores are at high risk for rapid clearance and unfavorable PK and therapeutics that score low are at low risk and favorable PK.

[6] = biological target: T1, CD28 expressed on Jurkat T cell line / …; test: cell-based or functional assay; remark: listed apart in the source
[7] = biological target: T1, CD28 expressed on Jurkat T cell line / …; test: cell-based or functional assay; remark: listed apart in the source

| Binder | EC50, luciferase reporter, Jurkat-IL-2-Luc and HCT116-CD64 co-culture (further experiment) [1] | EC50, luciferase reporter, Jurkat-NYESO1-IL-2-Luc and A375-CD64 co-culture (further experiment) [2] | EC50 (read off the curve) [3] | EC50, luciferase reporter, Jurkat-CTLA-4-IL-2-Luc and HCT116-CD64 co-culture [4] | Kd [5] | Insulin Score (insulin) | EC50, luciferase reporter, Jurkat-IL-2-Luc and HCT116-CD64 co-culture [1] | EC50, luciferase reporter, Jurkat-NYESO1-IL-2-Luc and A375-CD64 co-culture [2] | EC50, IL-2 release, primary T cell and HCT116-CD64 co-culture [6] | IL-2 EC50, human PBMC assay with plate-bound anti-CD3 (average of 5 donors) [7] |
| --- | --- | --- | --- | --- | --- | --- | --- | --- | --- | --- |
| CD80-A91S-Fc (Fc fusion) VIHVTKEVKEVATLSCGHNVSVEELAQTRIYWQKEKKMVLTMMSGDMNIWPEYKNRTIFDITNNLSIVILALRPSDEGTYECVVLKYEKDSFKREHLAEVTLSVKADFPTPSISDFEIPTSNIRRIICSTSGGFPEPHLSWLENGEELNAINTTVSQDPETELYAVSSKLDFNMTTNHSFMCLIKYGHLRVNQTFNWNTTKQEHFPDN[sequence of human IgG1 Fc with C220S (EU numbers) omitted] | 0.5 nM | 1.1 nM | ~20 nM | 1.8 nM | 20 nM |  |  |  |  |  |
| CD80-K89Q-D90Q-I61C-Fc (Fc fusion, also called CD80-K89Q-D90Q-161C-Fc (so in the source)) VIHVTKEVKEVATLSCGHNVSVEELAQTRIYWQKEKKMVLTMMSGDMNIWPEYKNRTIFDCTNNLSIVILALRPSDEGTYECVVLKYEQQAFKREHLAEVTLSVKADFPTPSISDFEIPTSNIRRIICSTSGGFPEPHLSWLENGEELNAINTTVSQDPETELYAVSSKLDFNMTTNHSFMCLIKYGHLRVNQTFNWNTTKQEHFPDN[sequence of human IgG1 Fc with C220S (EU numbers) omitted] |  |  |  |  |  | 1 ratio of ELISA signal at 10 µg/ml to buffer only |  |  |  |  |
| CD80-K89Q-D90Q-V22C-G45C-Fc (Fc fusion) VIHVTKEVKEVATLSCGHNVSCEELAQTRIYWQKEKKMVLTMMSCDMNIWPEYKNRTIFDITNNLSIVILALRPSDEGTYECVVLKYEQQAFKREHLAEVTLSVKADFPTPSISDFEIPTSNIRRIICSTSGGFPEPHLSWLENGEELNAINTTVSQDPETELYAVSSKLDFNMTTNHSFMCLIKYGHLRVNQTFNWNTTKQEHFPDN[sequence of human IgG1 Fc with C220S (EU numbers) omitted] |  |  |  |  |  | 1 ratio of ELISA signal at 10 µg/ml to buffer only |  |  |  |  |
| CD80-D90K-Fc (Fc fusion) VIHVTKEVKEVATLSCGHNVSVEELAQTRIYWQKEKKMVLTMMSGDMNIWPEYKNRTIFDITNNLSIVILALRPSDEGTYECVVLKYEKKAFKREHLAEVTLSVKADFPTPSISDFEIPTSNIRRIICSTSGGFPEPHLSWLENGEELNAINTTVSQDPETELYAVSSKLDFNMTTNHSFMCLIKYGHLRVNQTFNWNTTKQEHFPDN[sequence of human IgG1 Fc with C220S (EU numbers) omitted] |  |  | ~30 nM | 0.8 nM | 29 nM |  | 14.4 ng/mL and 0.145 nM | 9.1 ng/mL and 0.092 nM | 17.9 ng/mL and 0.18 nM |  |
| CD80-K89D-D90N-Fc (Fc fusion) VIHVTKEVKEVATLSCGHNVSVEELAQTRIYWQKEKKMVLTMMSGDMNIWPEYKNRTIFDITNNLSIVILALRPSDEGTYECVVLKYEDNAFKREHLAEVTLSVKADFPTPSISDFEIPTSNIRRIICSTSGGFPEPHLSWLENGEELNAINTTVSQDPETELYAVSSKLDFNMTTNHSFMCLIKYGHLRVNQTFNWNTTKQEHFPDN[sequence of human IgG1 Fc with C220S (EU numbers) omitted] |  |  |  |  |  |  | 22.7 ng/mL and 0.228 nM | 5.8 ng/mL and 0.059 nM | 40.4 ng/mL and 0.41 nM |  |
| CD80-K89D-D90Q-Fc (Fc fusion) VIHVTKEVKEVATLSCGHNVSVEELAQTRIYWQKEKKMVLTMMSGDMNIWPEYKNRTIFDITNNLSIVILALRPSDEGTYECVVLKYEDQAFKREHLAEVTLSVKADFPTPSISDFEIPTSNIRRIICSTSGGFPEPHLSWLENGEELNAINTTVSQDPETELYAVSSKLDFNMTTNHSFMCLIKYGHLRVNQTFNWNTTKQEHFPDN[sequence of human IgG1 Fc with C220S (EU numbers) omitted] |  |  |  |  |  |  | 20.3 ng/mL and 0.204 nM | 5.5 ng/mL and 0.055 nM | 35.8 ng/mL and 0.36 nM |  |
| CD80-K89Q-Fc (Fc fusion) VIHVTKEVKEVATLSCGHNVSVEELAQTRIYWQKEKKMVLTMMSGDMNIWPEYKNRTIFDITNNLSIVILALRPSDEGTYECVVLKYEQDAFKREHLAEVTLSVKADFPTPSISDFEIPTSNIRRIICSTSGGFPEPHLSWLENGEELNAINTTVSQDPETELYAVSSKLDFNMTTNHSFMCLIKYGHLRVNQTFNWNTTKQEHFPDN[sequence of human IgG1 Fc with C220S (EU numbers) omitted] |  |  |  | 1.8 nM | 91 nM |  | 70.2 ng/mL and 0.709 nM | 89.6 ng/mL and 0.906 nM | 92.9 ng/mL and 0.94 nM |  |
| CD80-D90Q-Fc (Fc fusion) VIHVTKEVKEVATLSCGHNVSVEELAQTRIYWQKEKKMVLTMMSGDMNIWPEYKNRTIFDITNNLSIVILALRPSDEGTYECVVLKYEKQAFKREHLAEVTLSVKADFPTPSISDFEIPTSNIRRIICSTSGGFPEPHLSWLENGEELNAINTTVSQDPETELYAVSSKLDFNMTTNHSFMCLIKYGHLRVNQTFNWNTTKQEHFPDN[sequence of human IgG1 Fc with C220S (EU numbers) omitted] |  |  | ~50 nM | 1 nM | 49 nM | 1 ratio of ELISA signal at 10 µg/ml to buffer only | 28.2 ng/mL and 0.285 nM | 9.8 ng/mL and 0.099 nM | 31.9 ng/mL and 0.32 nM | 7.45 nM |
| CD80-D90N-Fc (Fc fusion) VIHVTKEVKEVATLSCGHNVSVEELAQTRIYWQKEKKMVLTMMSGDMNIWPEYKNRTIFDITNNLSIVILALRPSDEGTYECVVLKYEKNAFKREHLAEVTLSVKADFPTPSISDFEIPTSNIRRIICSTSGGFPEPHLSWLENGEELNAINTTVSQDPETELYAVSSKLDFNMTTNHSFMCLIKYGHLRVNQTFNWNTTKQEHFPDN[sequence of human IgG1 Fc with C220S (EU numbers) omitted] |  |  |  |  |  |  | 23.9 ng/mL and 0.24 nM | 10.5 ng/mL and 0.105 nM | 0.33 nM and 33 ng/mL |  |
| CD80-K89D-D90K-Fc (Fc fusion) VIHVTKEVKEVATLSCGHNVSVEELAQTRIYWQKEKKMVLTMMSGDMNIWPEYKNRTIFDITNNLSIVILALRPSDEGTYECVVLKYEDKAFKREHLAEVTLSVKADFPTPSISDFEIPTSNIRRIICSTSGGFPEPHLSWLENGEELNAINTTVSQDPETELYAVSSKLDFNMTTNHSFMCLIKYGHLRVNQTFNWNTTKQEHFPDN[sequence of human IgG1 Fc with C220S (EU numbers) omitted] |  |  |  |  |  |  | 8.8 ng/mL and 0.088 nM |  | 15.3 ng/mL and 0.16 nM |  |
